According to publication PMC9911399, “Two distinct binding modes provide the RNA-binding protein RbFox with extraordinary sequence specificity”:
Numbering of substitutions follows the chain as printed; changes in the protein carry UniProt numbers. The list shows a part of the results.

T1: RBFOX1 RRM (Homo sapiens, UniProt Q9NWB1 109-208)
T1 sequence: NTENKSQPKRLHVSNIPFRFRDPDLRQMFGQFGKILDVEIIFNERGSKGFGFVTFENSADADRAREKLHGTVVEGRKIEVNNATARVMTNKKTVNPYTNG

B1: AUUUCGU (DNA:RNA)
RNA: GGGAGACCGGAAUUCAGAUUGUCCAUUUCGUUUAAAUCCCGUCGUAGCCACCA
DNA 1: CAATCTGAATTCCGGTCTCCC
DNA 2: TGGTGGCTACGACGGGATT
B2: CGGCAAC (DNA:RNA)
RNA: GGGAGACCGGAAUUCAGAUUGUCCCGGCAACUUAAAUCCCGUCGUAGCCACCA
DNA 1: CAATCTGAATTCCGGTCTCCC
DNA 2: TGGTGGCTACGACGGGATT
B3: ACGUUAC (DNA:RNA)
RNA: B2 RNA with C25A, G26C, C28U, A29U
DNA 1: CAATCTGAATTCCGGTCTCCC
DNA 2: TGGTGGCTACGACGGGATT
B4: ACCUCGC (DNA:RNA)
RNA: B1 RNA with U26C, U27C, U31C
DNA 1: CAATCTGAATTCCGGTCTCCC
DNA 2: TGGTGGCTACGACGGGATT
B5: ACAGAAU (DNA:RNA)
RNA: B1 RNA with U26C, U27A, U28G, C29A, G30A
DNA 1: CAATCTGAATTCCGGTCTCCC
DNA 2: TGGTGGCTACGACGGGATT
B6: GGAUUUC (DNA:RNA)
RNA: B2 RNA with C25G, G27A, C28U, A29U, A30U
DNA 1: CAATCTGAATTCCGGTCTCCC
DNA 2: TGGTGGCTACGACGGGATT
B7: UUGGACG (DNA:RNA)
RNA: B2 RNA with C25U, G26U, C28G, A30C, C31G
DNA 1: CAATCTGAATTCCGGTCTCCC
DNA 2: TGGTGGCTACGACGGGATT
B8: AUAUGCA (DNA:RNA)
RNA: B1 RNA with U27A, C29G, G30C, U31A
DNA 1: CAATCTGAATTCCGGTCTCCC
DNA 2: TGGTGGCTACGACGGGATT
B9: ACACUGG (DNA:RNA)
RNA: B1 RNA with U26C, U27A, U28C, C29U, U31G
DNA 1: CAATCTGAATTCCGGTCTCCC
DNA 2: TGGTGGCTACGACGGGATT
B10: GACCAGA (DNA:RNA)
RNA: B2 RNA with C25G, G26A, G27C, A30G, C31A
DNA 1: CAATCTGAATTCCGGTCTCCC
DNA 2: TGGTGGCTACGACGGGATT
B11: ACUGUGC (DNA:RNA)
RNA: B1 RNA with U26C, U28G, C29U, U31C
DNA 1: CAATCTGAATTCCGGTCTCCC
DNA 2: TGGTGGCTACGACGGGATT
B12: CGUAUGU (DNA:RNA)
RNA: B1 RNA with A25C, U26G, U28A, C29U
DNA 1: CAATCTGAATTCCGGTCTCCC
DNA 2: TGGTGGCTACGACGGGATT
B13: UCCCUCU (DNA:RNA)
RNA: B1 RNA with A25U, U26C, U27C, U28C, C29U, G30C
DNA 1: CAATCTGAATTCCGGTCTCCC
DNA 2: TGGTGGCTACGACGGGATT
B14: UUACAGG (DNA:RNA)
RNA: B1 RNA with A25U, U27A, U28C, C29A, U31G
DNA 1: CAATCTGAATTCCGGTCTCCC
DNA 2: TGGTGGCTACGACGGGATT
B15: GAACGCG (DNA:RNA)
RNA: B2 RNA with C25G, G26A, G27A, A29G, A30C, C31G
DNA 1: CAATCTGAATTCCGGTCTCCC
DNA 2: TGGTGGCTACGACGGGATT
B16: CAGGUUU (DNA:RNA)
RNA: B2 RNA with G26A, C28G, A29U, A30U, C31U
DNA 1: CAATCTGAATTCCGGTCTCCC
DNA 2: TGGTGGCTACGACGGGATT
B17: CAAAAAA (DNA:RNA)
RNA: B2 RNA with G26A, G27A, C28A, C31A
DNA 1: CAATCTGAATTCCGGTCTCCC
DNA 2: TGGTGGCTACGACGGGATT
B18: GGGGAGA (DNA:RNA)
RNA: B2 RNA with C25G, C28G, A30G, C31A
DNA 1: CAATCTGAATTCCGGTCTCCC
DNA 2: TGGTGGCTACGACGGGATT
B19: CGCCCCU (DNA:RNA)
RNA: B2 RNA with G27C, A29C, A30C, C31U
DNA 1: CAATCTGAATTCCGGTCTCCC
DNA 2: TGGTGGCTACGACGGGATT
B20: ACCGCAU (DNA:RNA)
RNA: B1 RNA with U26C, U27C, U28G, G30A
DNA 1: CAATCTGAATTCCGGTCTCCC
DNA 2: TGGTGGCTACGACGGGATT
B21: GUAUGCU (DNA:RNA)
RNA: B1 RNA with A25G, U27A, C29G, G30C
DNA 1: CAATCTGAATTCCGGTCTCCC
DNA 2: TGGTGGCTACGACGGGATT
B22: UUGUCUC (DNA:RNA)
RNA: B1 RNA with A25U, U27G, G30U, U31C
DNA 1: CAATCTGAATTCCGGTCTCCC
DNA 2: TGGTGGCTACGACGGGATT
B23: GUAGCUG (DNA:RNA)
RNA: B1 RNA with A25G, U27A, U28G, G30U, U31G
DNA 1: CAATCTGAATTCCGGTCTCCC
DNA 2: TGGTGGCTACGACGGGATT
B24: CUAGAUC (DNA:RNA)
RNA: B2 RNA with G26U, G27A, C28G, A30U
DNA 1: CAATCTGAATTCCGGTCTCCC
DNA 2: TGGTGGCTACGACGGGATT
B25: AACGCUC (DNA:RNA)
RNA: B1 RNA with U26A, U27C, U28G, G30U, U31C
DNA 1: CAATCTGAATTCCGGTCTCCC
DNA 2: TGGTGGCTACGACGGGATT
B26: UACCCUA (DNA:RNA)
RNA: B1 RNA with A25U, U26A, U27C, U28C, G30U, U31A
DNA 1: CAATCTGAATTCCGGTCTCCC
DNA 2: TGGTGGCTACGACGGGATT
B27: UGAUUCG (DNA:RNA)
RNA: B1 RNA with A25U, U26G, U27A, C29U, G30C, U31G
DNA 1: CAATCTGAATTCCGGTCTCCC
DNA 2: TGGTGGCTACGACGGGATT
B28: AAAUUCU (DNA:RNA)
RNA: B1 RNA with U26A, U27A, C29U, G30C
DNA 1: CAATCTGAATTCCGGTCTCCC
DNA 2: TGGTGGCTACGACGGGATT
B29: GUAGGUA (DNA:RNA)
RNA: B1 RNA with A25G, U27A, U28G, C29G, G30U, U31A
DNA 1: CAATCTGAATTCCGGTCTCCC
DNA 2: TGGTGGCTACGACGGGATT
B30: GUCCAAC (DNA:RNA)
RNA: B2 RNA with C25G, G26U, G27C
DNA 1: CAATCTGAATTCCGGTCTCCC
DNA 2: TGGTGGCTACGACGGGATT
B31: AUCGUCU (DNA:RNA)
RNA: B1 RNA with U27C, U28G, C29U, G30C
DNA 1: CAATCTGAATTCCGGTCTCCC
DNA 2: TGGTGGCTACGACGGGATT

Target: T1, RBFOX1 RRM
Experiment: EMSA; HiTS-Eq, 1 nM pool, 10 min; buffer printed only for the single-RNA assays: 10 mM Tris pH 7.5, 150 mM NaCl, 3.4 mM EDTA, 0.001% NP-40, 30 C
Conditions: tags: His6 N-terminal (pET28a); label: 5' 32P
Summary of the method: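 Purified RbFox RRM, wild type or mutant, was incubated for 10 min in 50 µL with 1 nM of a 5′-radiolabelled RNA pool carrying 7 randomized nucleotides, whose flanks were annealed to DNA oligonucleotides, over a series of increasing protein concentrations. Unbound RNA was resolved on 8% native PAGE, cut out, reverse-transcribed, barcoded by PCR and sequenced on an Illumina HiSeq 2500. Relative association constants were derived from changes in read counts for each RNA species versus the control reaction and normalised to the cognate motif.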

In order of rising binding signal:
1. B5  0.000791 KA relative to UGCAUGU
2. B17  0.00226 KA relative to UGCAUGU
3. B26  0.00244 KA relative to UGCAUGU
4. B28  0.0025 KA relative to UGCAUGU
5. B13  0.00263 KA relative to UGCAUGU
6. B14  0.00329 KA relative to UGCAUGU
7. B4  0.0038 KA relative to UGCAUGU
8. B30  0.00461 KA relative to UGCAUGU
9. B3  0.00513 KA relative to UGCAUGU
10. B31  0.0052 KA relative to UGCAUGU
11. B25  0.00593 KA relative to UGCAUGU
12. B20  0.00667 KA relative to UGCAUGU
13. B19  0.00718 KA relative to UGCAUGU
14. B29  0.00797 KA relative to UGCAUGU
15. B9  0.00817 KA relative to UGCAUGU
16. B24  0.0087 KA relative to UGCAUGU
17. B7  0.00919 KA relative to UGCAUGU
18. B10  0.0115 KA relative to UGCAUGU
19. B16  0.0116 KA relative to UGCAUGU
20. B1  0.0125 KA relative to UGCAUGU
21. B2  0.0128 KA relative to UGCAUGU
22. B11  0.0129 KA relative to UGCAUGU
23. B23  0.0129 KA relative to UGCAUGU
24. B12  0.0134 KA relative to UGCAUGU
25. B8  0.0145 KA relative to UGCAUGU
26. B15  0.0153 KA relative to UGCAUGU
27. B21  0.018 KA relative to UGCAUGU
28. B22  0.0203 KA relative to UGCAUGU
29. B27  0.0228 KA relative to UGCAUGU
30. B18  0.0242 KA relative to UGCAUGU
31. B6  0.0284 KA relative to UGCAUGU
